# Measurements as given in PubChem BioAssay AID624417 (National Center for Advancing Translational Sciences (NCATS), 2012).
# The whole screen tested about 410,000 compounds, of which about 6,400 (1.6%) were called active. Inconclusive means that the source gave no clear call. Such entries were picked first, then a sample of the others. Calls come from the whole dose curve; as a rule, active = well fitted inhibition curve with a large enough effect; inconclusive = small, poorly fitted or top-dose-only effect; inactive = no such curve, though single readings can be large or run the other way. Potencies of inconclusive entries are left out as doubtful fits.
# Target: Glucagon-like peptide 1 receptor (Homo sapiens) (UniProt P43220)
# Test: qHTS of GLP-1 Receptor Inverse Agonists (Inhibition Mode); note: nearly all actives have a fitted effect of over 55% in size
# Settings: HEK293 GLP-1R CRE-luciferase, luminescence, 24 h, GLP-1R form is constitutively active; series mostly up to 38.3 µM
# Method in brief: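 Inverse agonists were sought by their lowering of basal cAMP reporter luciferase output in HEK293 cells stably carrying constitutively active human GLP-1R, after 24 h compound treatment.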
# Potency is the fitted concentration of half-maximal effect; tags give direction and shape of the fitted curve.
# Chain of UniProt P43220 (P43220 whole entry, looked up): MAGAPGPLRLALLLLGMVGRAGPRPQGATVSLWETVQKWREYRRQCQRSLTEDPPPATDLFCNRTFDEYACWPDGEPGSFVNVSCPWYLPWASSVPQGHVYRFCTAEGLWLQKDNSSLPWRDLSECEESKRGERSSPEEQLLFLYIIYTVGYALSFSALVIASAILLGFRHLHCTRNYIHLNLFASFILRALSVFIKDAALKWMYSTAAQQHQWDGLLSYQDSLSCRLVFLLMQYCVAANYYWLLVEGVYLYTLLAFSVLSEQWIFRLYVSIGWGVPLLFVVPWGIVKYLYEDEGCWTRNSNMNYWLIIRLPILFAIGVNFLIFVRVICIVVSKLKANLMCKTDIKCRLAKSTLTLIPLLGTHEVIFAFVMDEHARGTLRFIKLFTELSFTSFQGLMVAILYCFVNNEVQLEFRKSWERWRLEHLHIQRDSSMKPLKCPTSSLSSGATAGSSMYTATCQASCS
row,SMILES,Potency
1,CN(C)S(=O)(=O)c1ccc(C(=O)Nc2nnc(SCC(=O)N3CCOCC3)s2)cc1,inactive
2,N=c1n(Cc2ccc(Cl)cc2)c2ccccc2n1CC(O)COc1ccccc1 (stereo unspecified),"inconclusive [inhibitor, partial curve, poor fit]"
3,Cc1cc(NC(=O)c2cccc(S(=O)(=O)N3c4ccccc4CC3C)c2)no1 (stereo unspecified),"inconclusive [inhibitor, partial curve, poor fit]"
4,OCCN1CCN(c2nc3ccccc3nc2-c2ccccc2)CC1,"inconclusive [inhibitor, single point]"
5,Cn1c(=O)n(Cc2ccc(Br)cc2)c2ccccc21,"inconclusive [inhibitor, partial curve, poor fit]"
6,O=C(c1ccc(N2CCN(C(=O)c3ccccc3Br)CC2)cc1)c1cccc(F)c1,"inconclusive [inhibitor, partial curve]"
7,Cc1nn(C)c(C(=O)N/N=C/c2cccc(Oc3ccccc3)c2)c1Br,"inconclusive [inhibitor, single point]"
8,COc1cccc(OC)c1C(=O)Nc1ccc(Br)c(C(=O)c2ccccc2)c1,"inconclusive [inhibitor, partial curve, poor fit]"
9,Cc1ccc(CN2CCN(Cc3cn[nH]c3C3CCCCC3)CC2CCO)cc1 (stereo unspecified),"inconclusive [inhibitor, full curve, poor fit]"
10,CSCCC(c1nc2ccccc2[nH]1)n1c(-c2ccc(C)cc2)nc2ccccc21 (stereo unspecified),"inconclusive [inhibitor, single point]"
11,O=C(N/N=C/c1ccc(O)cc1)c1cc[n+](Cc2ccccc2)cc1,inactive
12,Cc1ccc(C)c(S(=O)(=O)N2CCCC2CNC(=O)C(=O)Nc2ccccc2)c1 (stereo unspecified),"inconclusive [inhibitor, single point]"
13,O=C(NCc1ccccc1)C1c2ccccc2Oc2ccccc21,"inconclusive [inhibitor, single point]"
14,CCO[C@@H]1OC(C(=O)NCc2nc3ccccc3[nH]2)=C[C@H](C(C)(C)C)[C@H]1CCCO,"inconclusive [inhibitor, full curve, poor fit]"
15,CCOc1ccc(CNC2CCCCCCC2)cc1OC,"inconclusive [inhibitor, partial curve, poor fit]"
16,Cc1[nH]c(=O)[nH]c(=O)c1S(=O)(=O)N1CCN(c2ccccc2)CC1,inactive
17,COc1ccc(C(=O)CC2(O)C(=O)N(Cc3ccccc3Cl)c3ccccc32)cc1 (stereo unspecified),"inconclusive [inhibitor, partial curve, poor fit]"
18,CC(=O)Nc1ccc(C2(O)COc3ccccc3O2)cc1 (stereo unspecified),"inconclusive [inhibitor, partial curve, poor fit]"
19,C[C@@]12C(=O)Nc3ccc(Br)cc3C(=O)N1[C@H]1c3cc(Cl)ccc3OC[C@@H]1[C@@H]2c1ccccc1,"inconclusive [inhibitor, full curve, poor fit]"
20,OCCNc1nc(-c2ccccc2)nc2c1oc1ccccc12,"inconclusive [inhibitor, single point]"
21,CC(C)(C)OC(=O)N1CCCN(C(c2ccnc3ccccc23)c2nnnn2-c2ccc3c(c2)OCCO3)CC1 (stereo unspecified),"inconclusive [inhibitor, partial curve, poor fit]"

row,SMILES,Potency
1,CCOC(=O)c1ccc(NC(=O)C2CC3CCC2C3)cc1 (stereo unspecified),"inconclusive [inhibitor, single point]"
2,Clc1ccc(-c2cc(-c3nnc4n3CCCCC4)c3ccccc3n2)cc1,inactive
3,CCC1CCCCN1CC(=O)N1CCCc2c1c(=O)oc1ccc(OCc3ccccc3)cc21 (stereo unspecified),"inconclusive [inhibitor, partial curve, poor fit]"
4,C#CCOc1c(Cl)cc(/C=N/NC(N)=S)cc1OCC,"inconclusive [inhibitor, partial curve, poor fit]"
5,COc1cccc(-c2cc(C(=O)Nc3cc(OC)c(OC)c(OC)c3)on2)c1,"inconclusive [inhibitor, partial curve, poor fit]"
6,CC(=O)Oc1ccc2occ(C(=O)c3ccccc3)c2c1,"inconclusive [inhibitor, single point]"
7,Cc1ccccc1OCC(=O)N/N=C/c1cc2ccccc2nc1Cl,inactive
8,c1ccc(CSc2ccc(-c3cccs3)nn2)cc1,inactive
9,CC(C)(C)C1=NN(c2ccc([N+](=O)[O-])cc2)C(c2ccccc2)C1 (stereo unspecified),"inconclusive [inhibitor, single point]"
10,N#CCC(=O)Nc1ccc(C(=O)NNC(=O)CCN2CCN(c3ccccc3)CC2)cc1,inactive
11,COC(=O)[C@]12CCCCC=C1N(Cc1ccc(Cl)cc1Cl)C(=O)[C@H](CC(=O)N1CCSCC1)C2,"inconclusive [inhibitor, single point]"
12,Cc1cccc([C@@H]2[C@@H]3C(=O)N(Cc4ccccc4)C(=O)[C@@H]3[C@]3(Cc4ccc(Cl)cc4)C(=O)N(c4cccc(Cl)c4)C(=O)N23)c1,inactive
13,COc1cc(SC)ccc1C(=O)Nc1nccs1,"inconclusive [inhibitor, partial curve, poor fit]"
14,Cc1cccc(C)c1OCC(=O)Nc1cccc(C(=O)O)c1,"inconclusive [inhibitor, single point]"
15,O=C(NCCC1=CCCCC1)c1cc(COc2c(F)cccc2F)on1,"inconclusive [inhibitor, single point]"
16,CCc1ccc(/C=C/C(=O)c2cc(Br)ccc(=O)c2O)cc1,"inconclusive [inhibitor, partial curve, poor fit]"
17,COc1ccc(C(c2nnnn2C(C)(C)C)N2CCN(c3nc4ccccc4s3)CC2)cc1 (stereo unspecified),inactive
18,Cc1cccc(CNc2ccc(S(=O)(=O)N3CCCCC3)cc2)c1,"inconclusive [inhibitor, partial curve, poor fit]"
19,CN(C)c1ccc2c(c1)C(=NO)c1ccccc1-2,"inconclusive [inhibitor, single point]"
20,CCc1ccc(C2CC(c3ccccc3Cl)Nc3nc(N)nn32)cc1 (stereo unspecified),"inconclusive [inhibitor, single point]"
21,CN(C)CCC[C@@]1(c2ccc(F)cc2)OCc2cc(C#N)ccc21,"inconclusive [inhibitor, partial curve, poor fit]"

row,SMILES,Potency
1,O=S(=O)(c1ccccc1)c1nc(-c2ccc(Cl)cc2Cl)oc1N1CCCCCC1,inactive
2,Cc1cccc(C)c1-n1c(SCC(=O)NCc2ccco2)nc2ccccc2c1=O,"inconclusive [inhibitor, partial curve, poor fit]"
3,O=C(CN1C(=O)CC(c2ccccc2)=Nc2ccccc21)NC1CCCCC1,"inconclusive [inhibitor, partial curve, poor fit]"
4,CC(C)c1ccc(CNc2nc(-c3ccco3)nn2S(=O)(=O)c2ccc3ccccc3c2)cc1,"inconclusive [inhibitor, single point]"
5,CN(C)S(=O)(=O)c1ccc2nnn(OCC(=O)NC34CC5CC(CC(C5)C3)C4)c2c1,"inconclusive [inhibitor, partial curve, poor fit]"
6,COc1ccccc1C1CN(c2ccc(F)cc2F)N=C1c1cccs1 (stereo unspecified),"inconclusive [inhibitor, partial curve, poor fit]"
7,CCCS(=O)(=O)c1ncc(Cl)c(C(=O)Nc2scc(-c3ccccc3)c2C(=O)OCC)n1,"inconclusive [inhibitor, single point]"
8,O=S(=O)(NC1CCCCC1N1CCC(O)CC1)c1ccccc1 (stereo unspecified),inactive
9,CCCCNc1nc2ccccc2n1CC(=O)Nc1ccc2c(c1)OCCO2,"inconclusive [inhibitor, single point]"
10,COc1ccc(NC(=O)c2c([N+](=O)[O-])c(C(C)(C)C)nn2C)cc1,"inconclusive [inhibitor, partial curve, poor fit]"
11,CC(C)CC(=O)N1CCC(N(CCc2ccccc2)Cc2ccccc2)CC1,"inconclusive [inhibitor, single point]"
12,CCOC(=O)C1(CCc2ccccc2)CCN(Cc2cccc3nccnc23)CC1,"inconclusive [inhibitor, partial curve, poor fit]"
13,Cc1ccc(NC(=O)CSCC(=O)Nc2ccc(S(=O)(=O)N3CCCC3)cc2)cc1,"inconclusive [inhibitor, single point]"
14,Cc1ccc(C(CNS(=O)(=O)c2ccc(F)cc2C)N2CCN(C)CC2)cc1 (stereo unspecified),"inconclusive [inhibitor, partial curve, poor fit]"
15,CN(Cc1ccccc1)c1ccc(C(CC(N)=O)NC(=O)c2ccc(Br)cc2)cc1[N+](=O)[O-] (stereo unspecified),"inconclusive [inhibitor, partial curve, poor fit]"
16,Cc1ccc(Nc2nnc(-c3ccc(N4CCOCC4)c([N+](=O)[O-])c3)c3ccccc23)cc1,"inconclusive [inhibitor, partial curve, poor fit]"
17,O=c1[nH]c(=S)[nH]c2c1C(c1ccc(F)cc1)OC(C1CCCCC1)C2 (stereo unspecified),inactive
18,Cc1ccc(Nc2c(-c3ccncc3)nc3ccc(C)cn23)cc1,inactive
19,CC(C)c1ccccc1OCC(=O)N(C)CC(=O)Nc1ccc(F)cc1,"inconclusive [inhibitor, single point]"
